# Reference: the supplement of paper PMC12217912
# The list shows a part of the results. Sequences were assembled here from the parent chain. Inactive controls read about 0.05.
# B1: TEV protease; numbered along this chain (parent)
# chain: MGESLFKGPRDYNPISSSICHLTNESDGHTTSLYGIGFGPFIITNKHLFRRNNGTLVVQSLHGVFKVKDTTTLQQHLVDGRDMIIIRMPKDFPPFPQKLKFREPQREERICLVTTNFQTKSMSSMVSDTSCTFPSGDGIFWKHWIQTKDGQCGSPLVSTRDGFIVGIHSASNFTNTNNYFTSVPKNFMELLTNQEAQQWVSGWRLNADSVLWGGHKVFMVKPEEPFQPVKEATQL
# Variants of: B1
# Test: raw area under fraction-flipped curve 0-4 h after induction (AUC4h, not background-subtracted), DNA-recorder readout of cleavage of the substrate (dimensionless); higher = more cleavage of the substrate by the protease variant
# Conditions: temperature: 34 °C; time window: 0-4 h after rhamnose induction
# Method: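 In vivo DNA recorder in E. coli TOP10(DE3) ΔrhaA at 34 °C. Each TEVp single-site mutant (parent TEVp 0) is paired with a single-site variant of the 7-mer TEVs (canonical ENLYFQ|S). The substrate sits between flexible linkers in a Bxb1-sfGFP-TEVs-SsrA fusion, so cleavage stabilises Bxb1 and speeds flipping of a recombination array, read by NGS. The value is the raw area under the fraction-flipped curve over 0-4 h after rhamnose induction (AUC4h), with ≥20 reads per time point. It is not background-subtracted; inactive controls average about 0.047.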
# 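Further: Bxb1 expression induced with 0.2% (w/v) L-rhamnose at OD600 near 0.5, cultures sampled hourly, flipped fraction per protease–substrate barcode pair counted by paired-end Illumina sequencing.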
Variant,area with substrate ENLAFQS,area with substrate ENLCFQS,area with substrate ENLDFQS,area with substrate ENLFFQS,area with substrate ENLGFQS,area with substrate ENLKFQS,area with substrate ENLLFQS,area with substrate ENLNFQS,area with substrate ENLPFQS,area with substrate ENLRFQS,area with substrate ENLVFQS,area with substrate ENLWFQS,area with substrate ENLEFQS,area with substrate ENLHFQS,area with substrate ENLQFQS,area with substrate ENLSFQS,area with substrate ENLIFQS,area with substrate ENLMFQS,area with substrate ENLTFQS
F49Y,0.057,0.0601,0.0644,0.0711,0.0696,0.0667,0.0685,0.0694,0.0669,0.0568,0.0503,0.0561,–,–,–,–,–,–,–
F49D,0.0631,0.0531,0.0579,0.0525,0.0634,0.0563,–,0.0625,0.0408,0.0629,0.0604,–,0.055,0.0579,0.0555,0.0591,–,–,–
F49Q,0.0668,0.0613,0.0612,0.0674,–,0.0572,0.0493,0.0577,–,0.0593,–,0.0487,0.0476,–,0.0662,0.061,–,–,–
T31V,0.0843,0.057,0.0682,0.0901,0.0539,0.0973,–,0.062,0.0574,0.0836,–,0.0808,0.0664,0.079,0.0653,0.0686,0.0859,0.0793,–
I43H,0.0502,0.0531,0.0469,0.0385,0.0271,0.0582,0.0507,0.0471,0.055,–,0.0496,–,0.0589,0.0428,–,0.0558,0.0357,–,–
I43D,0.0286,0.0467,0.0417,0.0379,0.0394,0.0432,0.0482,0.0422,0.0474,0.0393,0.0504,0.0535,0.04,0.0383,–,0.0427,–,0.0408,–
I42V,0.0445,0.0459,0.05,0.0637,–,0.087,–,0.0835,0.055,0.05,–,0.0634,0.0576,0.0607,–,0.0671,0.0715,0.0838,0.0537
N53Q,0.0637,0.0623,0.061,0.0725,0.0533,0.0756,0.0623,0.061,–,0.0694,0.074,–,0.0662,0.062,0.076,0.067,0.069,–,0.0799
N53D,0.0477,0.0746,0.07,0.0802,–,0.0799,–,–,–,0.079,–,–,0.0678,–,0.0435,–,0.0783,0.103,–
G37F,0.0643,0.0368,0.0555,0.0714,0.0405,0.0611,–,0.0598,0.0576,0.0686,–,0.0534,–,0.0628,0.0643,0.0652,0.0625,0.0577,–
G54A,0.0548,–,0.0635,0.0645,–,0.0626,–,0.0585,0.0634,0.0698,–,0.0615,0.0559,0.0906,–,–,–,–,0.0691
N52Q,0.0508,0.0634,–,0.0541,0.0699,0.0486,0.0647,–,–,0.0638,–,0.0608,0.0552,0.0826,0.045,0.0755,0.0696,0.0532,–
H29T,0.0646,0.0754,0.0591,0.0984,0.0673,0.0853,–,0.0685,0.061,–,0.0821,0.0591,–,0.0402,0.0848,0.0939,0.0452,–,–
H29I,0.0585,–,–,–,–,0.0645,0.0831,0.0613,–,0.07,0.0821,0.0695,0.0737,–,–,0.0563,0.0846,–,–
H29M,0.0701,–,0.0611,0.094,0.058,0.066,0.0425,0.0657,0.0616,0.101,–,0.0609,0.0701,0.0643,–,0.065,0.0845,0.0724,–
H29P,0.0575,0.0567,0.0597,0.0747,–,–,0.0812,–,0.0329,0.0568,0.0884,0.0672,–,0.0702,–,0.0605,0.0627,0.0628,–
N45E,0.0613,–,0.0624,0.0627,0.0641,0.0612,0.0519,0.0674,0.0446,–,–,0.0442,0.0588,0.063,0.0811,0.0609,–,0.0497,0.0706
T30R,0.0567,0.0841,0.0667,0.0871,–,0.0764,0.0594,0.0504,0.0572,0.0747,0.0783,–,–,–,–,–,0.0683,–,–
G39F,0.0325,0.0487,0.048,0.0355,0.0502,0.0531,0.0157,0.0647,0.0494,–,–,0.0455,0.0447,0.0536,0.032,0.0409,0.0354,–,0.0469
G39Y,0.0413,0.0638,0.0378,0.0459,–,0.0538,–,0.0501,–,–,–,–,0.0343,0.0557,–,0.0704,0.0512,0.0472,–
G39L,0.0286,0.0394,0.039,0.0483,–,0.0452,0.0421,0.0331,–,–,0.0473,0.0417,0.0386,0.0431,0.0455,–,–,–,–
F41A,0.0619,0.0781,–,0.0686,–,0.0616,–,0.056,0.041,0.0555,–,0.0535,–,0.0644,0.0576,0.0483,–,–,–
F41Q,0.0626,0.0746,0.0552,0.0654,–,–,–,0.0485,0.0603,–,0.0733,0.0619,0.0518,0.0564,–,0.0564,0.0622,0.0668,–
F41G,0.0534,0.0442,0.0878,0.0689,0.0753,–,0.0623,0.0588,0.0535,0.0562,–,0.0304,0.0594,0.0544,0.0442,0.0454,0.0604,–,–
F41P,0.0488,0.0802,0.0578,0.0502,–,0.0551,0.0436,0.0575,0.0404,0.0548,0.0594,0.0495,0.0564,0.0576,0.0674,0.051,0.0577,–,0.0528
P40Q,0.0734,0.0793,0.0695,0.0837,0.0678,0.0807,–,–,–,0.07,–,0.0798,–,0.0609,–,0.0595,–,0.0742,–
